Assay results: publication PMC4336329 (PLoS ONE, 2015)
In all, about 310,000 compounds went through this assay and about 2,200 (0.71%) showed an effect of 50% or more. Effects have a minus sign here. Some of the results follow.

target: human ether-à-go-go-related gene (hERG) potassium channel (human, UniProt Q12809); assay: primary screen, population patch clamp on CHO cells stably expressing hERG
Sequence (Q12809 whole entry, looked up): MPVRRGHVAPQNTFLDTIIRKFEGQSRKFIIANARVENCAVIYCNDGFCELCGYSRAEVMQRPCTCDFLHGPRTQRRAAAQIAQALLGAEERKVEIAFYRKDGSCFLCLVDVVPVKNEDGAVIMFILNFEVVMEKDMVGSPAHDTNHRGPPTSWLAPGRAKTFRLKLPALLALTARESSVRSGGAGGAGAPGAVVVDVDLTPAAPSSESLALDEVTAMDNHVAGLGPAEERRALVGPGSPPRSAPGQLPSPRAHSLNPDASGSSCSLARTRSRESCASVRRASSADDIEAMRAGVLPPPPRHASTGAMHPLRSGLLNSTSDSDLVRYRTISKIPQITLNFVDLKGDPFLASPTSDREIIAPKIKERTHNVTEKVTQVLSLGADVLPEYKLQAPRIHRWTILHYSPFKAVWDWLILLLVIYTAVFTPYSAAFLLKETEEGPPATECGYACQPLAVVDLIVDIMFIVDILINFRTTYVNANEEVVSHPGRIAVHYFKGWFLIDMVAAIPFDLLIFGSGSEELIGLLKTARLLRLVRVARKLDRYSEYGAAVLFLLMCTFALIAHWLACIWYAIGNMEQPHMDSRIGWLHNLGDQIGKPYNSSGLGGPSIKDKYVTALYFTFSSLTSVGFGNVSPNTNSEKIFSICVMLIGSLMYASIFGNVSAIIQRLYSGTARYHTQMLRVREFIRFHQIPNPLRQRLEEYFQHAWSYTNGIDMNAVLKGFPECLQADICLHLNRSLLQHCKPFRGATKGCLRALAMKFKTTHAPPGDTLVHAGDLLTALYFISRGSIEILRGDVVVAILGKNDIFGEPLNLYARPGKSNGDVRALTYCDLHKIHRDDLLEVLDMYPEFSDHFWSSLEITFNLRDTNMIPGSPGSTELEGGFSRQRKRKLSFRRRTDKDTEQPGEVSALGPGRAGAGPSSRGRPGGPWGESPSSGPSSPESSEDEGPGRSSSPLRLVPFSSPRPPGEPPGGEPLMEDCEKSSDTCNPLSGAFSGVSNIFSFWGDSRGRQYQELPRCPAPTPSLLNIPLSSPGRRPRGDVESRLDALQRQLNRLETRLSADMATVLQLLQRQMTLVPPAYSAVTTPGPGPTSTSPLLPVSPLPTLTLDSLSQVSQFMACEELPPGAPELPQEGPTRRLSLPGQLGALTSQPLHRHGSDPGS

| SMILES | hERG current change (%, negative = inhibition) at 1uM [%] |
| --- | --- |
| O=C(CN1CCN(S(=O)(=O)c2ccc(Br)cc2)CC1)Nc1ccc(F)cc1 | -21.3 |
| O=C(c1cccc(Br)c1)N1CCN(S(=O)(=O)N2CCCCCC2)CC1 | 4.48 |
| Cc1ccc(S(=O)(=O)NCC2CCCO2)cc1[N+](=O)[O-] (stereo not drawn) | 8.5 |
| CCCCn1c(N)c(N(CCOC)C(=O)c2cc(CC)c(C)s2)c(=O)[nH]c1=O | 17.7 |
| COc1ccc(-c2coc3cc4oc(=O)c5ccccc5c4cc23)cc1F | 6.05 |
| CN(C)c1nc(N(C)C)n(C(=O)c2cccs2)n1 | 7.77 |
| COc1ccc2oc(=O)c(C(=O)NCCc3ccc(OC)c(OC)c3)cc2c1 | 0.0709 |
| CC(=O)c1ccc(N2CCN(S(=O)(=O)c3ccc4c(c3)CC(C)N4C(C)=O)CC2)cc1 (stereo not drawn) | 12 |
| O=S(=O)(c1ccc(N2CCN(S(=O)(=O)c3ccc4c(c3)OCCO4)CC2)nc1)N1CCCC1 | -4.44 |
| Cc1cccc(NC(=S)N(CCN(C)C)Cc2cc3cc(C)cc(C)c3[nH]c2=O)c1 | 2.63 |
| O=C(Cn1cncn1)c1ccc(F)cc1F | 20.7 |
| CCOC(=O)Cc1c(C)nc2c(-c3ccccc3)cnn2c1C | 4.63 |
| NC(=O)c1nc(C(=O)N2CCCCC2)c2ccccc2n1 | 13 |
| CC(=O)c1ccc(OC(=O)c2cccs2)cc1 | 7.58 |
| Fc1ccc(-c2nnc(-c3ccc(F)cc3)o2)cc1 | 12.5 |
| Cc1oncc1-c1csc(-c2ccccc2)n1 | 15.5 |
| CC(C)=CCC/C(C)=C/CN(CC(C)O)CC(C)O (stereo not drawn) | 10.3 |
| CC(C)(C)NC(=O)NC(=O)COC(=O)C1=COCCO1 | -1.67 |
| Cc1ccc(S(=O)(=O)N2CCCCC2)cc1NC(=O)CNC(C)c1ccc(Cl)c(Cl)c1 (stereo not drawn) | 14.4 |
| C/C(=C\C(=O)c1ccccc1)Nc1cccc(O)c1 | 12.4 |
| Cc1cccn2c(=O)c(/C=C(\C#N)S(=O)(=O)c3ccccc3)c(Oc3ccc(Cl)cc3)nc12 | 10.6 |
| COC(=O)c1ccccc1NS(=O)(=O)c1ccc(Cl)nc1 | 2.55 |

| SMILES | hERG current change (%, negative = inhibition) at 1uM [%] |
| --- | --- |
| Cc1cc(=O)oc2c(CN3CCN(CCO)CC3)c(O)ccc12 | 9.44 |
| COc1ccc(NS(=O)(=O)c2cccc(-c3nnc(-c4ccccc4)o3)c2)cc1 | 4.81 |
| Nc1ccc(S(=O)(=O)Nc2ncccn2)cc1 | 17.8 |
| CCc1nc2ccc(C(=O)NCCCN3CCN(c4ccccc4F)CC3)cc2nc1CC | 2.05 |
| Cc1[nH]c2ccccc2c1SCC(=O)N1CCOCC1 | 8.34 |
| COCCNC(=S)N1CCN(c2ccc(Cl)cc2)CC1 | 1.27 |
| O=C(COC(=O)[C@@H]1CC(O)CN1S(=O)(=O)c1ccc(Cl)cc1)NC(=O)NCc1ccccc1 (stereo partly drawn) | 1.37 |
| COc1cccc(C2CC(c3ccc(Cl)cc3)Nc3nc(N)nn32)c1 (stereo not drawn) | -15.8 |
| COC(=O)c1ccc(C2/C(=C(\O)c3cccc(OC)c3)C(=O)C(=O)N2CCCN(C)C)cc1 (stereo not drawn) | 10.2 |
| Br.COc1ccc(N=c2scc(-c3ccc(OC)cc3)n2CCO)cc1 | 6.5 |
| COC(=O)c1ccc(N2CCN(C(=O)C3CC3)CC2)c([N+](=O)[O-])c1 | 5.01 |
| Cc1cccc(NC(=O)c2c([N+](=O)[O-])cnn2C)c1 | 18.1 |
| NCCCC[C@H]1CNC(=O)C(=O)N1CCc1cccc2ccccc12 | 7.74 |
| Cc1cc(NC(=O)c2cc(CC(C)C)on2)n(-c2ccccc2)n1 | 12.4 |
| COc1ccc(-c2csc(NC(=S)NC(=O)c3ccc(S(=O)(=O)N(C)C)cc3)n2)cc1OC | 12.5 |
| Cc1nnc(NC(=O)CCC(=O)NCc2ccco2)s1 | 5.6 |
| Cc1ccccc1C(=O)Nc1cccc(C(=O)N/N=C/c2cc(Cl)cc([N+](=O)[O-])c2O)c1 | 7.95 |
| Cc1ccccc1N1CC(C(=O)Nc2ccc(S(=O)(=O)N3CCCC3)cc2)CC1=O (stereo not drawn) | 0.727 |
| O=c1oc2ccccc2cc1-c1nc(-c2cccs2)cs1 | 9.41 |
| CN(C1CCCCC1)S(=O)(=O)c1ccc2c(c1)c(=O)c(C(=O)NCCCN1CCCC1)cn2C | -1.99 |
| CC(NC(=O)Nc1ccc(Cl)cc1)C(c1cccs1)N1CCOCC1 (stereo not drawn) | 7.38 |
| Ic1ccccc1CN[C@@H]1C2CCN(CC2)[C@@H]1C(c1ccccc1)c1ccccc1.O.O=C(O)C(=O)O | -18.4 |

| SMILES | hERG current change (%, negative = inhibition) at 1uM [%] |
| --- | --- |
| CN(C)S(=O)(=O)c1cccc(NC(=O)c2cccc(S(=O)(=O)N3CCc4ccccc43)c2)c1 | 9.75 |
| COc1ccc(C(c2nnnn2C2CCCC2)N2CCN(C(=O)c3ccco3)CC2)cc1OC.Cl (stereo not drawn) | -0.0835 |
| CC(C)(O)[C@@H]1Cc2c(ccc3ccc(=O)oc23)O1 | 11.6 |
| COc1ccc(N=Nc2cc(C)c(O)c(CN3CCCCC3)c2)cc1 | 7.96 |
| CCC(=O)Nc1ncc2c(n1)CC(c1ccco1)CC2=O (stereo not drawn) | 12 |
| CC(=O)Nc1ccc(OCC(=O)N(CC(C)C)C2CCS(=O)(=O)C2)cc1 (stereo not drawn) | 14.2 |
| COc1ccccc1CNC(=O)COC(=O)c1cccc(-n2cnnn2)c1 | 5.94 |
| COC(=O)c1ccc(/C=N/NC(=S)NCCN2CCOCC2)cc1 | 8.48 |
| Cc1ccc(N2C(=S)N=C(Nc3ccccc3C)C23CCOC(C)(C)C3)cc1 (stereo not drawn) | -1.2 |
| CC12CN3CC(C)(CN(C1)C3c1ccc(Br)cc1)C2=O (stereo not drawn) | 4.26 |
| CCCCn1c(N)c(N(CCOC)C(=O)COc2ccc(C(C)=O)cc2)c(=O)[nH]c1=O | 13.2 |
| CC1O[C@@H](OCC2O[C@@H](Oc3cc(O)c4c(c3)OC(c3ccc(O)cc3)CC4=O)[C@H](O)[C@@H](O)[C@@H]2O)[C@H](O)[C@H](O)[C@H]1O (stereo partly drawn) | 14 |
| O=C1CC(c2ccccc2)CC(O)=C1C=NCCN1CCN(Cc2ccccc2)CC1 (stereo not drawn) | -23.9 |
| Fc1ccc(-c2nc3c(Cl)cc(C(F)(F)F)cn3c2Cl)cc1 | 9.37 |
| CCOC(=O)c1cc2c(ccn2C)n1Cc1cc(C)ccc1C | 17.6 |
| CCC(C(=O)Nc1ccccn1)c1ccccc1 (stereo not drawn) | 9.19 |
| CSc1ccc(C(=O)C2CCCN(C(=O)c3nonc3C)C2)cc1 (stereo not drawn) | 7.67 |
| CCOc1ccc(N(CC(=O)Nc2cc(OC)cc(OC)c2)S(=O)(=O)c2c(C)[nH]c(=O)[nH]c2=O)cc1 | 11.7 |
| CC(=O)n1cc(CO)c2ccccc21 | 11.6 |
| O=C(NCc1cccnc1)c1nc(-c2ccc(C(F)(F)F)cc2)no1 | -16.6 |
| CSc1cccc(NC(=S)N2CCCN(Cc3cccc(Cl)c3)C2)c1 | 22.7 |
| O=C1C=C(c2ccc3cc[nH]c3c2)C[C@@H](c2ccc3c(c2)OCO3)C1 | 9.5 |

| SMILES | hERG current change (%, negative = inhibition) at 1uM [%] |
| --- | --- |
| COc1ccc(-c2cc3ccc(O)cc3oc2=O)cc1 | 2.61 |
| O=C1C2CCCN2C(=O)N1CCCCN1CCN(CCO)CC1 (stereo not drawn) | -12.1 |
| Cc1[nH]c2ccc(C(=O)NCCCN3CCCCC3)cc2c1C | 3.44 |
| CCOC(=O)CSc1nnc(CNC(=O)Cc2ccccc2)n1-c1ccccc1OC | 5.54 |
| CC(/C=N/NC(=O)c1ccc(CN2c3cccc4cccc(c34)S2(=O)=O)cc1)c1ccccc1 (stereo not drawn) | 9.2 |
| CC(=O)Nc1ccc2c(c1)OCCO2 | -0.0997 |
| CCNC(=O)CN(c1ccc(F)cc1)S(=O)(=O)c1ccc2c(c1)OCCO2 | 6.36 |
| CC(=O)C1=C(C)Nc2ncnn2C1c1ccccc1 (stereo not drawn) | 13.4 |
| Cc1ccsc1/C=N/n1c(-c2cccnc2)n[nH]c1=S | 20 |
| CCC(CCC(=O)NNC(=O)Cc1ccc([N+](=O)[O-])cc1)C(=O)O (stereo not drawn) | 9.58 |
| CCOC(=O)c1c(-c2ccccc2)oc2ccc(O)c(CN3CCCC3)c12 | -6.32 |
| CCN1CCN(c2ccc(S(=O)(=O)N3CCCCC3)cc2NC(=O)c2cccc(Cl)c2)CC1 | 5.69 |
| CC1(C)CC(NCc2cccc([N+](=O)[O-])c2)CC(C)(C)N1.Cl | 16.9 |
| Cc1cnc([N+](=O)[O-])n1CCOC(=O)NC(=O)c1cccc(F)c1 | 5.52 |
| O=C(c1cc([N+](=O)[O-])ccc1N1CCOCC1)N1CCOCC1 | 12.4 |
| CCOC(=O)c1ccc(CNC(=O)Cn2nnc(-c3ccc(C)cc3)n2)o1 | 3.5 |
| CC(C)OC(=O)C1C2C=CC3(CN(Cc4cccs4)C(=O)C13)O2 (stereo not drawn) | 15.8 |
| CCOC(=O)C1C(=O)NC(N2CCCCC2)=NC1C(C)C (stereo not drawn) | 2.34 |
| COc1ccccc1/C=C/C(=O)NCc1cccnc1 | 8.76 |
| O=S1(=O)[C@H]2C[C@@H]3C=C[C@@]2(CN1Cc1ccc(Cl)cc1)O3 | -0.0312 |
| COc1cc(/C=N/NC(=O)CSc2ccccn2)ccc1O | 6.45 |
